Measured values published in the supplement of paper PMC8512760.
The other results are listed elsewhere or left out. Most values come without repeats; read them as rough.

system: SUM-149; test: cell viability relative to vehicle (% of vehicle); basal-like triple-negative breast cancer lines; higher = less cytotoxic; conditions: 10 µM; 72 h
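Also: stably firefly luciferase-GFP labeled cells in 96-well plates, viability read as luciferase photon flux after d-luciferin addition, treated wells normalized to vehicle wells, single-dose high-throughput screen.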

Row | SMILES | cell viability
1 | O=C([O-])P(=O)([O-])[O-].[Na+].[Na+].[Na+] [Foscarnet Sodium] | 97.1
2 | CNC(=O)c1ccccc1Sc1ccc2c(C=Cc3ccccn3)n[nH]c2c1 | 93.1
3 | Nc1ccc(O)c(C(=O)O)c1 [Mesalamine] | 131
4 | Cc1cccc(-c2nn3c(c2-c2ccnc4ccc(C(N)=O)cc24)CCC3)n1 | 78.7
5 | C[C@H]1COc2c(N3CCN(C)CC3)c(F)cc3c(=O)c(C(=O)O)cn1c23 [Levofloxacin] | 96.7
6 | COc1cnc(NS(=O)(=O)c2ccc(N)cc2)nc1 [Sulfameter] | 97.5
7 | Cl.NCCCC(N)(C(=O)O)C(F)F.O (racemic) [DL-α-Difluoromethylornithine (hydrochloride hydrate)] | 66.3
8 | CCc1cc(C(C)=NOCc2ccc(C3CCCCC3)c(C(F)(F)F)c2)ccc1CN1CC(C(=O)O)C1 [BAF312 (Siponimod)] | 88.3
9 | CN1CCN(c2ccc3c(c2)NC(=C2C(=O)N=c4cccc(F)c4=C2N)N3)CC1 [Dovitinib (TKI-258, CHIR-258)] | 51
10 | CNC(C)C1CCC(N)C(OC2C(N)CC(N)C(OC3OCC(C)(O)C(NC)C3O)C2O)O1.O=S(=O)(O)O (stereo unspecified) [Gentamycin Sulfate] | 70.3
11 | C=C1C(CO)C(O)CC1n1cnc2c(=O)nc(N)[nH]c21.O (stereo unspecified) [Entecavir Hydrate] | 97.2
